Experimental data from paper PMC3958368.
These are yes or no findings as the source states them, for the method shown. Some binding calls cover weakened binding; strength is not graded here.

Chains of the proteins cited; added tags and fusions are not shown.
UniProt P0A6R3: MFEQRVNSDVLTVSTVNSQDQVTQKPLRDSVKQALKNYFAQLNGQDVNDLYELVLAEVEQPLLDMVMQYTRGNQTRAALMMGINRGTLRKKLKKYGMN
UniProt P0A9E5: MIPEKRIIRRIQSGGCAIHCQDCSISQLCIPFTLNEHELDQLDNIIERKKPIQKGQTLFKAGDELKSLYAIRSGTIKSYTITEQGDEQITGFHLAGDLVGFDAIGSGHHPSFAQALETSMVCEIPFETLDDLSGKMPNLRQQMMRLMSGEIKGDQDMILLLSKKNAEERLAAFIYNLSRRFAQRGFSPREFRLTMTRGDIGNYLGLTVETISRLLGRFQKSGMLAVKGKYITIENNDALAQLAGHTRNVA
UniProt P00579: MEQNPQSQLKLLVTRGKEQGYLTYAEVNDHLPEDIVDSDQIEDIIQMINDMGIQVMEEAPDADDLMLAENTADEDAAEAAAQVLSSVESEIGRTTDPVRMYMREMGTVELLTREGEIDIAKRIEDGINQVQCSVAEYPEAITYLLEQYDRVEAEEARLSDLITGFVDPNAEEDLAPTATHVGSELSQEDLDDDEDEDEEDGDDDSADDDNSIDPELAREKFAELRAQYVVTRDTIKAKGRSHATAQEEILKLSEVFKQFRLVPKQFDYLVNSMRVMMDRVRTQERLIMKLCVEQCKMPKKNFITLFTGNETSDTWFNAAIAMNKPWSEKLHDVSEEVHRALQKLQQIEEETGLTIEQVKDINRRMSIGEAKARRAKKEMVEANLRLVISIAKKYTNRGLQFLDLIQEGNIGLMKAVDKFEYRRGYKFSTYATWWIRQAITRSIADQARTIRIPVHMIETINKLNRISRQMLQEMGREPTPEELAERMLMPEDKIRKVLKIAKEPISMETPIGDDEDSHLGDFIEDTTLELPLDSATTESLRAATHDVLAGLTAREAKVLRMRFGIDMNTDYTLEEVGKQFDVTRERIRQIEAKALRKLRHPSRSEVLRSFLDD
UniProt P0A7Z4: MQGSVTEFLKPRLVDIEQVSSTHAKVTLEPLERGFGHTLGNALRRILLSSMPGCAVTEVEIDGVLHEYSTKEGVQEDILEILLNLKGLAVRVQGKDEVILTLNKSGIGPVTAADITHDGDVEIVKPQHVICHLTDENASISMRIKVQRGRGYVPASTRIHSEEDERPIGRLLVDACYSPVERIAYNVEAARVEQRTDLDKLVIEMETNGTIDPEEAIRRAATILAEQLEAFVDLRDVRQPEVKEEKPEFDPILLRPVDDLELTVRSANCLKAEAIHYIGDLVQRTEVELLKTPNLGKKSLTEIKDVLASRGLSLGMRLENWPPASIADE

Key:
Test in all cases: PING (protein-protein interaction network generation; microfluidic mechanical trapping); bait and prey coexpressed by ITT in a chip chamber (2 hours at 30°C); bait immobilised under the button by biotinylated T7-epitope antibody; prey detected by Alexa-Fluor-647 penta-His antibody; PBS …; three trials, six replicates each; detected if p≤0.01 against baitless spots in at least one trial; no E. coli promoter DNA
[1] = molecular target: T1, rhaS, PING bait (E. coli) (UniProt P09377)
T1 sequence: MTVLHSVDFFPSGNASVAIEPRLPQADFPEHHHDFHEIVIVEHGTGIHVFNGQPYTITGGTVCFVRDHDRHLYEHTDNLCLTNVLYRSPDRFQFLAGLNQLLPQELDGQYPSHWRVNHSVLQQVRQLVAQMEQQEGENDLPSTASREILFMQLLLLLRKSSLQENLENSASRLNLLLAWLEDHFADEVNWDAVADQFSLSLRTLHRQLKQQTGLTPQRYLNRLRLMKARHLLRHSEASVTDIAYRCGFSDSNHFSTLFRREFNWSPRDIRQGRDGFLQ

rsd, PING bait (E. coli) = molecular target: T2, rsd, PING bait (E. coli) (UniProt P0AFX4)
T2 sequence: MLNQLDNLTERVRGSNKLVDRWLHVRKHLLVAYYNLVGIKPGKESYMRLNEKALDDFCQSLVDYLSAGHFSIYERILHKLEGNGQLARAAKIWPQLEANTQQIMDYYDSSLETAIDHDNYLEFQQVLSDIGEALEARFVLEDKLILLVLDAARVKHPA

fis, PING bait (E. coli) = fis, PING bait (E. coli) (UniProt P0A6R3)
lrp, PING bait (E. coli) = molecular target: T3, lrp, PING bait (E. coli) (UniProt P0ACJ0)
T3 sequence: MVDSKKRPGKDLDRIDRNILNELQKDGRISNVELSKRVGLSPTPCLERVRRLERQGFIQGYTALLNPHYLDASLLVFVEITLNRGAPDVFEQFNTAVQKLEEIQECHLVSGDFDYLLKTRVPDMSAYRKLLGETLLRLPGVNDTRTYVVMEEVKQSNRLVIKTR

[2] = molecular target: T4, arcA, PING bait (E. coli) (UniProt P0A9Q1)
T4 sequence: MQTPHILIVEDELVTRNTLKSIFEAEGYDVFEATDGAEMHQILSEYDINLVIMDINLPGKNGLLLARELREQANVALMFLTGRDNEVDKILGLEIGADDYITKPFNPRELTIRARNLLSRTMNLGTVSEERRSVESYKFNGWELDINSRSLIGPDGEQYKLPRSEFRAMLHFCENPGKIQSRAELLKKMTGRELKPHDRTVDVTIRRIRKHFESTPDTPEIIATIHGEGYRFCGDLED

[3] = molecular target: T5, marA, PING bait (E. coli) (UniProt P0ACH5)
T5 sequence: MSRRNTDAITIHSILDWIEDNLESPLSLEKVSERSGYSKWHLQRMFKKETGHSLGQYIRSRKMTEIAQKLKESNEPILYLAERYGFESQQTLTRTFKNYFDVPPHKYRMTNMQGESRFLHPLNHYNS

fnr, PING bait (E. coli) = fnr, PING bait (E. coli) (UniProt P0A9E5)

Row | binding [1] | binding (rsd, PING bait (E. coli)) | binding (fis, PING bait (E. coli)) | binding (lrp, PING bait (E. coli)) | binding [2] | binding [3] | binding (fnr, PING bait (E. coli)) | Substance
1 | no binding | binds | binds | binds | – | – | – | E. coli RNA polymerase major σ factor σ^70 (rpoD) (from UniProt P00579 1-613)
2 | – | no binding | binds | binds | binds | binds | no binding | E. coli RNA polymerase α subunit (rpoA) (from UniProt P0A7Z4 1-329)
